{"source": "PubChem BioAssay AID504333", "about": "(National Center for Advancing Translational Sciences (NCATS), 2011)", "note": "Hit rate of the full screen: of about 360,000 compounds, about 16,000 (4.4%) were called active. Inconclusive means that the source gave no clear call. Such entries were picked first, then a sample of the others. Calls follow the shape of the dose curve; as a rule, active = well fitted inhibition curve with a large enough effect; inconclusive = small, poorly fitted or top-dose-only effect; inactive = no such curve, though single readings can be large or run the other way. A potency beside an inconclusive call is a rough fit, not a confirmed value. % is scaled to controls: 0 for no effect and ±100 for the full control effect; potency is read from the fitted curve at half-maximal effect; tags tell the direction and shape of the fitted curve."}
{"molecular_target": "Bromodomain adjacent to zinc finger domain protein 2B (Homo sapiens) (UniProt Q9UIF8)", "sequence (Q9UIF8 whole entry, looked up, the tested form may be a part)": "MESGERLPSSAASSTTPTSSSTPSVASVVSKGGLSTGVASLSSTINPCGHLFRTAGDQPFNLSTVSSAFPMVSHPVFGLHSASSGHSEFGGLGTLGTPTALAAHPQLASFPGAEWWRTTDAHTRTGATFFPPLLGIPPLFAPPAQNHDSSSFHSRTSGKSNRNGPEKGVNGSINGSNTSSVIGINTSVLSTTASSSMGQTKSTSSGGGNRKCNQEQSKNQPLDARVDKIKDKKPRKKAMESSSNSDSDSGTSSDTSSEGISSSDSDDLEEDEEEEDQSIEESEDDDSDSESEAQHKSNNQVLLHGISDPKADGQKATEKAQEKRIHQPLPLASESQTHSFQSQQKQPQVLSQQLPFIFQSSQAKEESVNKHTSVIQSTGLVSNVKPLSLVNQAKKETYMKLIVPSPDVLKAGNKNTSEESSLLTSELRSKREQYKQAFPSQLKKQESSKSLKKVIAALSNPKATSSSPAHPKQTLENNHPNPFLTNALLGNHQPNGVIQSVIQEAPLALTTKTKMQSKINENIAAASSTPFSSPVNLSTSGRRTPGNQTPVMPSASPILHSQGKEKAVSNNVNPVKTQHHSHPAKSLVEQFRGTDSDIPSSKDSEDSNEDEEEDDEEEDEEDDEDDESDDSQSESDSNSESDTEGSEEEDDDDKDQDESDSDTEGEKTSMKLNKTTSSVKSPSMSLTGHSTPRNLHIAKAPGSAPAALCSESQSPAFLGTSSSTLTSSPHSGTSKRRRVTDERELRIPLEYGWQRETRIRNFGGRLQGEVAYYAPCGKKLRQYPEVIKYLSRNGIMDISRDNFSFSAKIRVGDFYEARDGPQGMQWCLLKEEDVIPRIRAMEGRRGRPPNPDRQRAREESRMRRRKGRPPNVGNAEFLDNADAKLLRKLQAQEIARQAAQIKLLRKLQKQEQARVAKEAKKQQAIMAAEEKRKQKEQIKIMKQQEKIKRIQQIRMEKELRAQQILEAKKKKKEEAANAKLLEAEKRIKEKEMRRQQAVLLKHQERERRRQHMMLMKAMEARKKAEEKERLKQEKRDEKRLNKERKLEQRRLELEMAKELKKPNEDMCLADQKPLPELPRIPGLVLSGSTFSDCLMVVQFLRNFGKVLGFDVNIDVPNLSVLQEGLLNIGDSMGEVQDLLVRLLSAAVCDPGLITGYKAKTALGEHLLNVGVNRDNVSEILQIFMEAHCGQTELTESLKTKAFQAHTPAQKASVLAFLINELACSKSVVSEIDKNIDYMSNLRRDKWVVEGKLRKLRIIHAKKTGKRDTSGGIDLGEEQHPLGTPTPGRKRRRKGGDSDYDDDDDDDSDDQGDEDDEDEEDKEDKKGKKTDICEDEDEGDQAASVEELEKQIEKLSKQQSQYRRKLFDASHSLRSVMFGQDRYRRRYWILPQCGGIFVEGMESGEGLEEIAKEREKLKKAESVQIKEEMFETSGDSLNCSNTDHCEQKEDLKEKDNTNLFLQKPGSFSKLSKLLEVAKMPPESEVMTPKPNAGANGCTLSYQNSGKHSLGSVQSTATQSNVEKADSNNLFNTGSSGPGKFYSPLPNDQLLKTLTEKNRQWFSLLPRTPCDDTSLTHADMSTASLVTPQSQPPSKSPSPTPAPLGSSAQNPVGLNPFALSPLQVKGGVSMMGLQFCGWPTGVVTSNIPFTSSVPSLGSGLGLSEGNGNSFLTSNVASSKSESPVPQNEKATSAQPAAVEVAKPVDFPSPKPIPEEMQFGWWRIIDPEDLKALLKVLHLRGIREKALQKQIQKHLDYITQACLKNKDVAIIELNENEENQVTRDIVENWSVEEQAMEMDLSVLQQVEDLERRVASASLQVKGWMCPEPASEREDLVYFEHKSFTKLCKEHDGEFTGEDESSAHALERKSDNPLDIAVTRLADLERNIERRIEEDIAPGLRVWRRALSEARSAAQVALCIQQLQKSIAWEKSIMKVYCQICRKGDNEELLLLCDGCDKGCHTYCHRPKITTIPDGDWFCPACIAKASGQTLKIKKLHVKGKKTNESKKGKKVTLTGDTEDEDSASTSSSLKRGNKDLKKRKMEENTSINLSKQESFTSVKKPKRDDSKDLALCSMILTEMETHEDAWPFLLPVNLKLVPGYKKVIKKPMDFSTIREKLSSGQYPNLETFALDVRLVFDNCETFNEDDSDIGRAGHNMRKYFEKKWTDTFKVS", "assay": "qHTS Assay for Inhibitors of BAZ2B; also: nearly all actives have a fitted effect of over 60% in size", "conditions": "AlphaScreen BAZ2B-H3K14Ac peptide displacement; activity change, negative = inhibition: at 114 µM (top of the series)", "how_it_was_run": "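AlphaScreen displacement: compounds (up to 110uM) incubated 30 min at room temperature with a preformed 50 nM BAZ2B/50 nM biotinylated H3K14Ac peptide complex in PBS pH 7.4 with Tween-20. Donor and acceptor beads at 10 ug/mL final added, 20 min light-protected before reading.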"}
{"smiles": "COc1ccc(CN(CCC(c2ccc3c(c2)OCO3)c2ccccc2OC)C(C)=O)cc1", "note": "(stereo not drawn)", "Potency": "inconclusive: 17.8 µM [inhibitor, full curve]"}
{"smiles": "CCc1noc(C)c1C(=O)Nc1ccc(F)c(F)c1F", "activity change, negative = inhibition": "inactive: -0.818%"}
{"smiles": "CC1=C(C)CC(C(=O)Nc2ccc3c(c2)OCO3)C(C(=O)O)C1", "note": "(stereo not drawn)", "Potency": "inconclusive: 79.4 µM [inhibitor, single point]"}
{"smiles": "O=S(=O)(/C=C/c1ccccc1)N1CCN(c2nc(-c3cccnc3)nc3ccccc23)CC1", "Potency": "inconclusive: 79.4 µM [inhibitor, partial curve]"}
{"smiles": "CCCC(=O)OCCNc1cc(SCCC(=O)OC)c2nonc2c1[N+](=O)[O-]", "Potency": "inconclusive: 89.1 µM [inhibitor, single point]"}
{"smiles": "CCN(CC)c1ccc(/C=N/NC(=S)NCc2ccccc2)c(O)c1", "Potency": "active: 22.4 µM"}
{"smiles": "CCN(CC)c1ccc(CNc2nc3ccccc3n2CCN2CCCCC2)cc1", "Potency": "active: 14.1 µM"}
{"smiles": "COc1ccc(-c2csc(NC(=S)NC(=O)c3cccs3)n2)cc1OC", "Potency": "inconclusive: 79.4 µM [inhibitor, single point]"}
{"smiles": "O=C(CN1CCN(c2ccc(Cl)cc2)CC1)Nc1ccc(F)cc1F", "activity change, negative = inhibition": "inactive: 6.16%"}
{"smiles": "O=C(NCCc1ccccc1)c1ccc2c(=O)[nH]c3c(C(=O)NCC4CCCO4)sc(=S)n3c2c1", "note": "(stereo not drawn)", "Potency": "active: 35.5 µM"}
{"smiles": "Oc1c(Br)cc(/C=N/NC(=S)NCc2ccco2)cc1Br", "Potency": "inconclusive: 44.7 µM [inhibitor, partial curve]"}
{"smiles": "Cc1cccc(C)c1Nc1c(-c2ccsc2)nc2ccccn12", "Potency": "inconclusive: 11.2 µM [inhibitor, full curve]"}
{"smiles": "COc1ccc(C)cc1-n1c(C)cc(C=O)c1C", "Potency": "inconclusive: 63.1 µM [inhibitor, partial curve, poor fit]"}
{"smiles": "COc1ccc2c(c1)C(C)=CC(C)(C)N2C(=O)CN1C(=O)CCC1=O", "activity change, negative = inhibition": "inactive: 9.92%"}
{"smiles": "O=C(NNS(=O)(=O)c1ccc(F)cc1)c1ccc([N+](=O)[O-])cc1", "activity change, negative = inhibition": "inactive: -13.1%"}
{"smiles": "C[C@@H]1O[C@@H](Oc2c(-c3cc(O)c(O)c(O)c3)oc3cc(O)cc(O)c3c2=O)[C@H](O)[C@H](O)[C@H]1O", "Potency": "active: 50.1 µM"}
{"smiles": "COc1ccc(NC(=O)c2ccco2)cc1N", "Potency": "inconclusive: 79.4 µM [inhibitor, single point]"}
{"smiles": "CCCCOc1ccc(C2C(C(=O)c3ccc(C)o3)=C(O)C(=O)N2Cc2ccco2)cc1", "note": "(stereo not drawn)", "Potency": "inconclusive: 44.7 µM [inhibitor, partial curve]"}
{"smiles": "CCOc1ccccc1N(C)C(=O)Cn1nc(Cc2ccncc2)c2ccccc2c1=O", "activity change, negative = inhibition": "inactive: -12.5%"}
{"smiles": "CCOC(=O)c1c(C)[nH]c(C)c1S(=O)(=O)N(C)CC(=O)NCc1ccc(F)cc1", "activity change, negative = inhibition": "inactive: -14.1%"}
{"smiles": "CC(C)CN1C(=O)C(=O)N(CC(=O)c2ccc[nH]2)C1=O", "activity change, negative = inhibition": "inactive: 8.05%"}
{"smiles": "COc1cc(C(C)=O)ccc1OCC(=O)c1cc(C)n(C2CC2)c1C", "activity change, negative = inhibition": "inconclusive: -40.8% [inhibitor]"}
{"smiles": "COc1ccc(N2CCN(C(=O)c3cccs3)CC2)cc1", "Potency": "inconclusive: 79.4 µM [inhibitor, single point]"}
{"smiles": "O=[N+]([O-])c1ccc(-n2nnnc2-c2ccccc2)c([N+](=O)[O-])c1", "activity change, negative = inhibition": "inactive: -35.5%"}
{"smiles": "CCCCNC(=S)NCC(c1ccccc1)c1c[nH]c2ccccc12", "note": "(stereo not drawn)", "Potency": "inconclusive: 35.5 µM [inhibitor, partial curve]"}
{"smiles": "CCN(/N=C/c1ccccc1)c1cc(=O)n(C)c(=O)[nH]1", "Potency": "inconclusive: 89.1 µM [inhibitor, single point]"}
{"smiles": "COc1ccccc1NC(=O)C(C)Sc1nc(-c2ccccc2)cn1N", "note": "(stereo not drawn)", "Potency": "inconclusive: 79.4 µM [inhibitor, single point]"}
{"smiles": "COc1ccc(-n2c(-c3ccc(Br)cc3)nc(=S)c3c2CCCC3)cc1", "activity change, negative = inhibition": "inactive: 1.86%"}
{"smiles": "C/C(=N\\N1CCN(Cc2ccccc2Cl)CC1)c1ccc(F)cc1", "activity change, negative = inhibition": "inactive: -12.6%"}
{"smiles": "CC(C)(C)CC(=O)NC(=S)NCc1ccco1", "Potency": "inconclusive: 89.1 µM [inhibitor, single point]"}
{"smiles": "S=c1[nH]nc(-c2ccccn2)n1/N=C/c1cccc2ccccc12", "Potency": "active: 28.2 µM"}
{"smiles": "CN(C)S(=O)(=O)c1cccc(CNCC2COc3ccccc3O2)c1", "note": "(stereo not drawn)", "Potency": "active: 31.6 µM"}
{"smiles": "CS(=O)(=O)c1cccc(-c2nnc(NC(=O)c3ccc4c(c3)OCCO4)o2)c1", "Potency": "inconclusive: 89.1 µM [inhibitor, single point]"}
{"smiles": "CC1=NN(C(N)=S)C(=O)C1N=Nc1c(Br)cc(Br)cc1Br", "note": "(stereo not drawn)", "Potency": "active: 28.2 µM"}
{"smiles": "Cc1ccc(NC(=O)C(=O)NCC(c2ccc3c(c2)OCO3)N2CCN(C)CC2)c(C)c1", "note": "(stereo not drawn)", "activity change, negative = inhibition": "inactive: -1.65%"}
{"smiles": "O=C(Cc1ccc(S(=O)(=O)N2CCOCC2)s1)NCC1CCCCC1", "Potency": "inconclusive: 79.4 µM [inhibitor, single point]"}
{"smiles": "CCCN(CC(=O)Nc1ccccc1C)C(=O)Cc1coc2cc(C)ccc12", "Potency": "inconclusive: 79.4 µM [inhibitor, single point]"}
{"smiles": "CCOC(=O)c1sc(NC(=O)Nc2ccccc2Cl)cc1C", "activity change, negative = inhibition": "inactive: -12.2%"}
{"smiles": "C=CCN1C(C(=O)c2ccccc2)=C(OC(=O)COc2ccccc2)c2ccccc2S1(=O)=O", "Potency": "inconclusive: 89.1 µM [inhibitor, single point]"}
{"smiles": "CSCCC(=O)Nc1nc(-c2ccccn2)cs1", "Potency": "active: 20 µM"}
{"smiles": "Cc1ccc(NC(=O)CN2C(=O)S/C(=C/c3ccc(-c4cc(C(=O)O)ccc4C)o3)C2=O)cc1C", "Potency": "active: 11.2 µM"}
{"smiles": "O=C(COC(=O)CC1CC2CCC1C2)NC(=O)NCc1ccco1", "note": "(stereo not drawn)", "Potency": "inconclusive: 50.1 µM [inhibitor, partial curve]"}
{"smiles": "C[C@@H](c1ncncc1F)[C@](O)(Cn1cncn1)c1ccc(F)cc1F", "activity change, negative = inhibition": "inactive: -2.75%"}
{"smiles": "Cn1c(=O)c2c(nc(CN3CCN(c4ccccc4)CC3)n2Cc2c(F)cccc2Cl)n(C)c1=O", "activity change, negative = inhibition": "inconclusive: -39.7% [inhibitor]"}
{"smiles": "COc1cc(-c2nc(=S)[nH][nH]2)cc(OC)c1OC", "Potency": "active: 50.1 µM"}
{"smiles": "CCC(=O)n1nc(NCc2ccc(OC)c(OC)c2)nc1NCc1ccc(OC)c(OC)c1", "Potency": "inconclusive: 44.7 µM [inhibitor, partial curve]"}
{"smiles": "O=C(/C=C/c1ccco1)N1CCN(S(=O)(=O)/C=C/c2ccccc2)CC1", "Potency": "inconclusive: 79.4 µM [inhibitor, single point]"}
{"smiles": "CCOc1ccc(N=Nc2c(C)[nH]n(-c3ccccc3)c2=O)cc1", "Potency": "inconclusive: 5.62 µM [inhibitor, full curve]"}
{"smiles": "O=C(COC(=O)C1CC2CCCC(C1)C2=O)NNC(=O)c1ccccc1F", "note": "(stereo not drawn)", "activity change, negative = inhibition": "inactive: 14.7%"}
{"smiles": "CN(C)c1ccc(-c2nc(-c3cccs3)c(-c3cccs3)[nH]2)cc1", "Potency": "inconclusive: 22.4 µM [inhibitor, full curve]"}
{"smiles": "CN1CCN(CCCN2c3ccccc3Sc3ccc(S(=O)(=O)N(C)C)cc32)CC1", "Potency": "inconclusive: 89.1 µM [inhibitor, single point]"}
{"smiles": "Cc1ccc2nc(-c3ccccc3)cc(C(=O)NCC(c3ccco3)N(C)C)c2c1", "note": "(stereo not drawn)", "Potency": "inconclusive: 79.4 µM [inhibitor, single point]"}
{"smiles": "O=C(c1ccc2snnc2c1)N1CCCC1", "Potency": "inconclusive: 89.1 µM [inhibitor, single point]"}
{"smiles": "CCCn1c(SCC(O)c2ccccc2)nc2ccccc21", "note": "(stereo not drawn)", "Potency": "inconclusive: 79.4 µM [inhibitor, partial curve]"}
{"smiles": "O=C(O)Cc1sc(-c2ccc(Cl)cc2)nc1-c1ccccc1", "activity change, negative = inhibition": "inactive: 0.491%"}
{"smiles": "CCOc1cc(/C=C2\\C(=O)NN(c3ccccc3)C2=O)cc([N+](=O)[O-])c1O", "Potency": "inconclusive: 44.7 µM [inhibitor, partial curve]"}
{"smiles": "O=S(=O)(c1ccc(Cl)cc1)N(CCCN1CCOCC1)Cc1cccs1", "Potency": "active: 50.1 µM"}
{"smiles": "NC(=O)CC(NC(=O)c1cccc(Br)c1)c1ccc(NC2CCC2)c([N+](=O)[O-])c1", "note": "(stereo not drawn)", "Potency": "inconclusive: 70.8 µM [inhibitor, single point]"}
{"smiles": "CCCCn1c(N)c(-c2nc3ccccc3s2)c2c([N+](=O)[O-])nn(C)c(=O)c21", "Potency": "inconclusive: 44.7 µM [inhibitor, partial curve]"}
{"smiles": "COc1cc2c(cc1OC)CN(C(=O)c1ccc(N3CCCC3)c([N+](=O)[O-])c1)CC2", "Potency": "active: 44.7 µM"}
{"smiles": "C=CCNC(=S)Nc1c(N)n(C)c(=O)n(C)c1=O", "activity change, negative = inhibition": "inactive: -3.09%"}
{"smiles": "CNC(=S)N(CCc1c(C)[nH]c2ccc(F)cc12)Cc1ccco1", "Potency": "inconclusive: 79.4 µM [inhibitor, single point]"}
{"smiles": "CN(c1nc(-c2ccccc2)cs1)C1CCS(=O)(=O)C1", "note": "(stereo not drawn)", "Potency": "inconclusive: 79.4 µM [inhibitor, single point]"}
{"smiles": "S=C(N/N=C/c1ccco1)NC1CC2CCC1C2", "note": "(stereo not drawn)", "Potency": "inconclusive: 50.1 µM [inhibitor, partial curve]"}
{"smiles": "CCCC(=O)NC(c1ccc(OC)cc1)c1c(O)ccc2ccccc12", "note": "(stereo not drawn)", "activity change, negative = inhibition": "inactive: -11.1%"}
{"smiles": "O=C(Nc1ccc(C(=O)N2CCN(c3ccccc3F)CC2)cc1)C1=CSCCO1", "Potency": "inconclusive: 70.8 µM [inhibitor, single point]"}
{"smiles": "CN(C)c1ccc2c(c1)OC(N)=C(C#N)C2c1cccc(F)c1", "note": "(stereo not drawn)", "Potency": "inconclusive: 89.1 µM [inhibitor, single point]"}
{"smiles": "COc1ccc(OCCN2C(=O)c3ccccc3C2=O)c([N+](=O)[O-])c1", "activity change, negative = inhibition": "inactive: -7.36%"}
{"smiles": "Cc1cc2ncn(CC(C)C)c2cc1C", "activity change, negative = inhibition": "inactive: -16.6%"}
{"smiles": "CCOC(=O)Cn1c(=O)cc(C(F)(F)C(F)(F)F)c2c(C)nn(CC)c21", "activity change, negative = inhibition": "inactive: 69%"}
{"smiles": "Cc1cc(/C=N\\NC(=O)CC(=O)NC2CCCCC2)c(C)n1-c1ccc(Cl)cc1", "Potency": "inconclusive: 50.1 µM [inhibitor, partial curve]"}
{"smiles": "CCn1c(SCC(=O)N/N=C/c2ccccc2OCC(=O)O)nnc1-c1ccccc1", "Potency": "inconclusive: 79.4 µM [inhibitor, single point]"}
{"smiles": "CCCCCNc1nc(N2CCCC2)c2c(c1C#N)CCN(C)C2", "Potency": "inconclusive: 50.1 µM [inhibitor, partial curve]"}
